Where a chain is given by its changes, count along the chain named. The list shows a part of the results.

Here are results for 20 molecules from publication PMC9911399, “Two distinct binding modes provide the RNA-binding protein RbFox with extraordinary sequence specificity”.

T1: RBFOX1 RRM RbFoxmut (Fox-RRM*) (Homo sapiens, UniProt Q9NWB1 109-208, R118D;E147R;N151S;E152T)
T1 sequence: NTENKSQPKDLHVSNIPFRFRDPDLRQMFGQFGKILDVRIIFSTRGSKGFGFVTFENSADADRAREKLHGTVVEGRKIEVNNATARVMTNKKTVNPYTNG

B1: AACGAUA (DNA:RNA)
RNA: GGGAGACCGGAAUUCAGAUUGUCCAACGAUAUUAAAUCCCGUCGUAGCCACCA
DNA 1: CAATCTGAATTCCGGTCTCCC
DNA 2: TGGTGGCTACGACGGGATT
B2: AGCUCAU (DNA:RNA)
RNA: B1 RNA with A26G, G28U, A29C, U30A, A31U
DNA 1: CAATCTGAATTCCGGTCTCCC
DNA 2: TGGTGGCTACGACGGGATT
B3: CCGCAGU (DNA:RNA)
RNA: B1 RNA with A25C, A26C, C27G, G28C, U30G, A31U
DNA 1: CAATCTGAATTCCGGTCTCCC
DNA 2: TGGTGGCTACGACGGGATT
B4: UAACCCG (DNA:RNA)
RNA: B1 RNA with A25U, C27A, G28C, A29C, U30C, A31G
DNA 1: CAATCTGAATTCCGGTCTCCC
DNA 2: TGGTGGCTACGACGGGATT
B5: GUUUUGG (DNA:RNA)
RNA: GGGAGACCGGAAUUCAGAUUGUCCGUUUUGGUUAAAUCCCGUCGUAGCCACCA
DNA 1: CAATCTGAATTCCGGTCTCCC
DNA 2: TGGTGGCTACGACGGGATT
B6: GUCUGAG (DNA:RNA)
RNA: B5 RNA with U27C, U29G, G30A
DNA 1: CAATCTGAATTCCGGTCTCCC
DNA 2: TGGTGGCTACGACGGGATT
B7: UUCCUGU (DNA:RNA)
RNA: B5 RNA with G25U, U27C, U28C, G31U
DNA 1: CAATCTGAATTCCGGTCTCCC
DNA 2: TGGTGGCTACGACGGGATT
B8: GACGUAC (DNA:RNA)
RNA: B1 RNA with A25G, A29U, U30A, A31C
DNA 1: CAATCTGAATTCCGGTCTCCC
DNA 2: TGGTGGCTACGACGGGATT
B9: CCAUUGU (DNA:RNA)
RNA: B5 RNA with G25C, U26C, U27A, G31U
DNA 1: CAATCTGAATTCCGGTCTCCC
DNA 2: TGGTGGCTACGACGGGATT
B10: UGACAGU (DNA:RNA)
RNA: B1 RNA with A25U, A26G, C27A, G28C, U30G, A31U
DNA 1: CAATCTGAATTCCGGTCTCCC
DNA 2: TGGTGGCTACGACGGGATT
B11: GUGGUCC (DNA:RNA)
RNA: B5 RNA with U27G, U28G, G30C, G31C
DNA 1: CAATCTGAATTCCGGTCTCCC
DNA 2: TGGTGGCTACGACGGGATT
B12: CGGGUCC (DNA:RNA)
RNA: B1 RNA with A25C, A26G, C27G, A29U, U30C, A31C
DNA 1: CAATCTGAATTCCGGTCTCCC
DNA 2: TGGTGGCTACGACGGGATT
B13: CGGCCCU (DNA:RNA)
RNA: GGGAGACCGGAAUUCAGAUUGUCCCGGCCCUUUAAAUCCCGUCGUAGCCACCA
DNA 1: CAATCTGAATTCCGGTCTCCC
DNA 2: TGGTGGCTACGACGGGATT
B14: GGACUGG (DNA:RNA)
RNA: B5 RNA with U26G, U27A, U28C
DNA 1: CAATCTGAATTCCGGTCTCCC
DNA 2: TGGTGGCTACGACGGGATT
B15: UCUUGAC (DNA:RNA)
RNA: B5 RNA with G25U, U26C, U29G, G30A, G31C
DNA 1: CAATCTGAATTCCGGTCTCCC
DNA 2: TGGTGGCTACGACGGGATT
B16: ACCAUGC (DNA:RNA)
RNA: B1 RNA with A26C, G28A, A29U, U30G, A31C
DNA 1: CAATCTGAATTCCGGTCTCCC
DNA 2: TGGTGGCTACGACGGGATT
B17: UCUGCAG (DNA:RNA)
RNA: B5 RNA with G25U, U26C, U28G, U29C, G30A
DNA 1: CAATCTGAATTCCGGTCTCCC
DNA 2: TGGTGGCTACGACGGGATT
B18: CAUCGGU (DNA:RNA)
RNA: B13 RNA with G26A, G27U, C29G, C30G
DNA 1: CAATCTGAATTCCGGTCTCCC
DNA 2: TGGTGGCTACGACGGGATT
B19: GUCAGUU (DNA:RNA)
RNA: B1 RNA with A25G, A26U, G28A, A29G, A31U
DNA 1: CAATCTGAATTCCGGTCTCCC
DNA 2: TGGTGGCTACGACGGGATT
B20: GCGGAGA (DNA:RNA)
RNA: B1 RNA with A25G, A26C, C27G, U30G
DNA 1: CAATCTGAATTCCGGTCTCCC
DNA 2: TGGTGGCTACGACGGGATT

The test has as its target T1, RBFOX1 RRM RbFoxmut (Fox-RRM*). As to the kind of experiment: EMSA; HiTS-Eq, 1 nM pool, 10 min; buffer printed only for the single-RNA assays: 10 mM Tris pH 7.5, 150 mM NaCl, 3.4 mM EDTA, 0.001% NP-40, 30 C. Particulars: tags: His6 N-terminal (pET28a); label: 5' 32P. In a few lines: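 Purified RbFox RRM (wild type or mutant) was equilibrated for 10 min in 50 µL with 1 nM of a 5′-radiolabelled pool of RNA with 7 randomized nucleotides, its flanks annealed to DNA oligonucleotides, across increasing protein concentrations. Free RNA was separated by 8% native PAGE, excised, reverse-transcribed, PCR-barcoded and sequenced on an Illumina HiSeq 2500. Relative association constants came from read-count changes of each variant against the control reaction, normalised to the cognate motif.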
Background: A gel shift assay detects complexes by their altered migration in electrophoresis.
Consider B1, for which the binding signal was 0.0696 KA relative to UGCAUGU.
For the molecule B2, the binding signal was 0.0951 KA relative to UGCAUGU.
As for B3, the figure is 0.0791 KA relative to UGCAUGU; as for B4, 0.0922 KA relative to UGCAUGU.
In the case of B5, the binding signal is 0.102 KA relative to UGCAUGU.
B6: the binding signal is 0.146 KA relative to UGCAUGU.
As for B7, the figure is 0.0952 KA relative to UGCAUGU; as for B8, 0.11 KA relative to UGCAUGU; as for B9, 0.123 KA relative to UGCAUGU.
With B10, the binding signal was 0.0684 KA relative to UGCAUGU.
Take B11: the binding signal was 0.135 KA relative to UGCAUGU.
For B12, the binding signal is 0.107 KA relative to UGCAUGU.
For the molecule B13, the binding signal is 0.0522 KA relative to UGCAUGU.
In the case of B14, the binding signal is 0.206 KA relative to UGCAUGU.
For B15, the binding signal was 0.0989 KA relative to UGCAUGU.
In the case of B16, the binding signal is 0.0949 KA relative to UGCAUGU.
For B17, the binding signal was 0.112 KA relative to UGCAUGU.
As for B18, the figure is 0.111 KA relative to UGCAUGU; as for B19, 0.0775 KA relative to UGCAUGU; as for B20, 0.0827 KA relative to UGCAUGU.
